{
  "source": "PubChem BioAssay AID2101",
  "about": "(National Center for Advancing Translational Sciences (NCATS), 2009)",
  "note": "The whole screen tested about 330,000 compounds, of which about 300 (0.091%) were called active. This list was built around the results that the source calls inconclusive (neither active nor inactive); the mix of calls is not that of the screen. Calls follow the shape of the dose curve; as a rule, active = well fitted inhibition curve with a large enough effect; inconclusive = small, poorly fitted or top-dose-only effect, or effect the other way, or another doubt; inactive = no such curve, though single readings can be large or run the other way. No potency is given beside an inconclusive call; the fits are too rough.",
  "data": [
    {"biological_target": "Lysosomal acid glucosylceramidase (Homo sapiens) (UniProt P04062)", "assay": "qHTS Assay for Inhibitors and Activators of N370S glucocerebrosidase as a Potential Chaperone Treatment of Gaucher Disease; also: potency is read from the fitted curve at half-maximal effect;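 as to activity change, negative = inhibition: 0% = full enzyme activity and -100% = no enzyme basal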", "conditions": "N370S GC spleen homogenate, 4MU-glucoside fluorescence; activity change, negative = inhibition: at 59.4 µM (top of the series) unless noted", "values": [
      {"compound": "CCC(C)NC(=O)c1c(N)n(/N=C/c2cccnc2)c2nc3ccccc3nc12", "note": "(stereo unspecified)", "Potency": "inconclusive [inhibitor, single point]"},
      {"compound": "CN(C)c1ccc(-c2nnc(-c3cccs3)o2)cc1", "Potency": "inconclusive [activator, partial curve]"},
      {"compound": "Clc1ccc(Cn2ncc3c(NCc4ccccc4)ncnc32)cc1", "Potency": "inconclusive [activator, partial curve]"},
      {"compound": "O=C(Nc1nc2ccccc2s1)c1ccccc1[N+](=O)[O-]", "Potency": "inactive"},
      {"compound": "Cc1cccc(CNc2ccnc(-c3ccccc3C(F)(F)F)n2)c1", "Potency": "active: 14.1 µM"},
      {"compound": "COc1ccc2cc1Oc1ccc(cc1)CC1c3c(cc4c(c3Oc3cc5c(cc3OC)CCN(C)C5C2)OCO4)CCN1C", "note": "(stereo unspecified)", "Potency": "inconclusive [inhibitor, partial curve, poor fit]"},
      {"compound": "Cc1ccc2c(CSc3nc4ccccc4c(=O)n3CCCO)cc(=O)oc2c1C", "Potency": "inconclusive [activator, single point]"},
      {"compound": "CC1CCN(c2ccc(C(=O)NCc3ccc4c(c3)OCO4)cc2[N+](=O)[O-])CC1", "Potency": "inconclusive [activator, partial curve]"},
      {"compound": "O=C(COc1ccccc1Cl)Nc1ccc2c(c1)OCCO2", "Potency": "inconclusive [activator, partial curve]"},
      {"compound": "COc1ccccc1C(=O)Nc1sc2c(c1C(=O)NCc1ccco1)CCCC2", "Potency": "inconclusive [activator, single point]"},
      {"compound": "Nc1c2c(nc3ccn(Cc4ccccc4)c(=O)c13)CCC2", "Potency": "inactive"},
      {"compound": "CCCCSc1ccc2nc(-c3ccc(C#N)cc3)cn2c1", "Potency": "inconclusive [activator, partial curve]"},
      {"compound": "OCCN1CCN(C(=S)c2ccc(-c3ccccc3)cc2)CC1", "Potency": "inconclusive [inhibitor, partial curve]"},
      {"compound": "N#Cc1ccc2c(c1)nc1ccccn12", "Potency": "inconclusive [activator, single point]"},
      {"compound": "O=C(/C=C/Nc1ccccc1Oc1ccccc1)c1ccco1", "Potency": "inactive"},
      {"compound": "Cc1cc(C(=O)CSc2ccc(Cl)cc2)cc(C)c1OC(=S)N(C)C", "Potency": "inactive"},
      {"compound": "COc1ccc(CNC(=O)c2ccc3c(c2)N(C)CCS3)cc1", "Potency": "inconclusive [activator, single point]"},
      {"compound": "CCOC(=O)c1sc(=NC(=O)c2ccc(C)cc2)n(C)c1C", "Potency": "inconclusive [activator, single point]"},
      {"compound": "CC(=O)Cc1nsc(NC(=O)c2ccc(-c3ccc(F)cc3)o2)n1", "Potency": "inconclusive [inhibitor, partial curve]"},
      {"compound": "CCCCCOc1ccc(C2C(C(C)=O)=C(C)Nc3ncnn32)cc1OC", "note": "(stereo unspecified)", "Potency": "inactive"},
      {"compound": "NC(=O)C1CCN(c2nc(C3CC3)nc3c2nnn3Cc2ccccc2Cl)CC1", "Potency": "inconclusive [inhibitor, partial curve]"},
      {"compound": "Cc1ccc(NC(=O)Cn2cccc2)c(C)c1", "Potency": "inconclusive [inhibitor, single point]"},
      {"compound": "Cc1[nH]c2ccc(C(=O)NCC(C)(C)N3CCOCC3)cc2c1C", "Potency": "inconclusive [inhibitor, partial curve]"},
      {"compound": "COc1ccc(Cn2c(SCc3ccccc3C)nc3cc(OC)c(OC)cc3c2=N)cc1", "Potency": "inconclusive [inhibitor, partial curve]"},
      {"compound": "N#Cc1nc(COc2ccccc2Cl)oc1N1CCCCCC1", "Potency": "inconclusive [activator, partial curve]"},
      {"compound": "CCOc1ccc2nc(NC(=O)CSc3nc(-c4ccccc4)c(C#N)c(=O)[nH]3)sc2c1", "Potency": "inconclusive [activator, single point]"},
      {"compound": "Cc1ccccc1SCC(=O)Nc1cc(S(=O)(=O)N2CCOCC2)ccc1N1CCOCC1", "Potency": "inconclusive [activator, single point]"},
      {"compound": "O=C(NCc1nc2ccccc2[nH]1)c1cccc(S(=O)(=O)N2CCOCC2)c1", "Potency": "inconclusive [inhibitor, single point]"},
      {"compound": "CCC(C)[C@H]1COCCS(=O)(=O)N1Cc1ccc(Br)cc1", "note": "(stereo partly specified)", "Potency": "inconclusive [activator, partial curve]"},
      {"compound": "O=C(Nc1cccc2nsnc12)c1ccc(-c2cccc(Cl)c2)o1", "Potency": "inactive"},
      {"compound": "CCOC(=O)c1c(-c2ccc(C)o2)csc1NC(=O)COC(=O)c1cccs1", "Potency": "inconclusive [activator, full curve]"},
      {"compound": "O=c1c2c3nc4ccccc4nc3n(/N=C/c3ccco3)c2ncn1CCC1=CCCCC1", "Potency": "inconclusive [inhibitor, full curve, poor fit]"},
      {"compound": "CCn1c(SCC(=O)Nc2ccc(C)cc2)nc2nc3c(cc2c1=O)CCCC3", "Potency": "inconclusive [activator, partial curve]"},
      {"compound": "COc1ccc(Nc2nc(C)nc3c2oc2ccccc23)c(OC)c1", "Potency": "inconclusive [activator, single point]"},
      {"compound": "O=C1c2ccccc2NC2CCCCCN12", "note": "(stereo unspecified)", "Potency": "inactive"},
      {"compound": "Cc1ccc(-c2nc(Nc3ccc(N4CCOCC4)cc3)c3ccccc3n2)cc1", "Potency": "active: 14.1 µM"},
      {"compound": "Cc1cc(C)c2c(-n3cccc3)c(C(=O)NNS(=O)(=O)c3ccc(Br)cc3)sc2n1", "Potency": "inconclusive [activator, full curve]"},
      {"compound": "COc1cccc(NC(=O)c2cc([N+](=O)[O-])ccc2N2CCN(C)CC2)c1", "activity change, negative = inhibition": "inconclusive: 28.5% [activator]"},
      {"compound": "O=C(CCCn1c(SCC(=O)NC2CCCCC2)nc2ccccc2c1=O)NCC1CCCO1", "note": "(stereo unspecified)", "Potency": "inactive"},
      {"compound": "O=C(CN1C(=O)C2C3c4ccccc4C(c4ccccc43)C2C1=O)Nc1cccc(C(=O)O)c1", "note": "(stereo unspecified)", "Potency": "inconclusive [inhibitor, single point]"},
      {"compound": "COc1cc(/C=N/n2c(-c3ccccc3)n[nH]c2=S)ccc1O", "Potency": "active: 14.1 µM"},
      {"compound": "COc1ccc(C2CC(c3ccccc3)=NN2c2ccc(S(N)(=O)=O)cc2)cc1", "note": "(stereo unspecified)", "Potency": "inconclusive [activator, partial curve]"},
      {"compound": "CC(C)N1C(=O)/C(=C\\c2nc3ccccc3c(=O)n2-c2ccccc2)c2ccccc21", "Potency": "inconclusive [activator, single point]"},
      {"compound": "Cc1csc2nc3cc(C(N)=O)ccc3c(=O)n12", "Potency": "inconclusive [activator, partial curve]"},
      {"compound": "COc1ccc2oc(C(=O)OCC(=O)N(C)C3CCS(=O)(=O)C3)c(C)c2c1", "note": "(stereo unspecified)", "Potency": "inactive"},
      {"compound": "CCCn1c(-c2cccs2)nc2c1c(=O)[nH]c(=O)n2Cc1ccccc1", "Potency": "inconclusive [activator, partial curve]"},
      {"compound": "COc1cccc(NC(=O)CSc2nc3c([nH]c4ccccc43)c(=O)n2C)c1", "Potency": "inconclusive [activator, partial curve]"},
      {"compound": "CC(C)=CCc1c2c(c3occ(-c4ccc(O)cc4)c(=O)c3c1O)C=CC(C)(C)O2", "Potency": "inconclusive [inhibitor, partial curve]"},
      {"compound": "O=C(O)c1cc(-c2cccs2)nc2ccc(F)cc12", "Potency": "inconclusive [activator, partial curve]"},
      {"compound": "CC(C)(CNc1ccc([N+](=O)[O-])cc1Cl)N1CCOCC1", "Potency": "inconclusive [inhibitor, single point]"},
      {"compound": "CC(C)CN1CCNC(=O)C1CC(=O)NCc1cnn(-c2cccc(F)c2)c1", "note": "(stereo unspecified)", "Potency": "inconclusive [inhibitor, full curve, poor fit]"},
      {"compound": "COC(=O)c1c(CSc2cccc(C)c2)noc1C(=O)NCc1ccco1", "Potency": "inconclusive [activator, partial curve]"},
      {"compound": "Cc1cc(C)c(NC(=O)CSc2nccn2C)c(C)c1", "Potency": "inconclusive [inhibitor, single point]"},
      {"compound": "CCn1c(=O)c2cc(C(=O)NCCCOC)sc2c2ccccc21", "Potency": "inconclusive [activator, single point]"},
      {"compound": "CC(C)c1ccc(NC(=O)c2ccccc2NC(=O)C2CCCCC2C(=O)O)cc1", "note": "(stereo unspecified)", "Potency": "inconclusive [activator, partial curve, poor fit]"},
      {"compound": "O=c1[nH]c(CSc2ccccn2)nc2ccccc12", "Potency": "inconclusive [inhibitor, single point]"},
      {"compound": "CSc1ccc(/C=C(\\C#N)C(=O)NC2CCCCC2C)cc1", "note": "(stereo unspecified)", "Potency": "inconclusive [activator, single point]"},
      {"compound": "CN(C)c1ccc(C(CNC(=O)c2ccc(-c3ccccc3)cc2)N2CCOCC2)cc1", "note": "(stereo unspecified)", "Potency": "inconclusive [inhibitor, full curve, poor fit]"},
      {"compound": "O=c1[nH][nH]c(-c2ccccc2)c1C=Nc1ccc(OC(F)(F)F)cc1", "Potency": "inactive"},
      {"compound": "NS(=O)(=O)c1ccc(Nc2ccc3cc(S(=O)(=O)N4CCCCC4)ccc3n2)cc1", "Potency": "inconclusive [activator, partial curve]"},
      {"compound": "CCc1ccc(CNC(=O)CCCn2c(=O)c3cccn3c3cccnc32)cc1", "Potency": "inactive"},
      {"compound": "COC(=O)c1ccccc1N=Nc1c(N)n[nH]c1N", "Potency": "inconclusive [inhibitor, single point]"},
      {"compound": "CCOc1ccccc1NC(=O)CN(c1ccc(C)cc1)S(=O)(=O)c1c(C)noc1C", "Potency": "inconclusive [activator, full curve]"},
      {"compound": "CCN(CC)CCN(C(=O)C1=COCCO1)c1nc2ccc(C)cc2s1", "Potency": "inconclusive [inhibitor, single point]"},
      {"compound": "COCC(C)n1c(C)cc(C(=O)Cn2c(=O)oc3ccccc32)c1C", "note": "(stereo unspecified)", "Potency": "inconclusive [inhibitor, full curve, poor fit]"},
      {"compound": "COc1ccc(O[C@H]2C=C[C@@H](c3ccccc3)O[C@@H]2COC(=O)CC/C(C)=N/O[C@@H](C)CN2CCCCc3nc(C)c(C)cc32)cc1", "Potency": "inconclusive [inhibitor, partial curve]"}
    ]}
  ]
}
